{"source": "PubChem BioAssay AID1347073", "about": "(National Center for Advancing Translational Sciences (NCATS), 2019)", "note": "In all, about 45,000 compounds went through this assay and about 200 (0.44%) were called active. Roughly 7% stayed inconclusive and do not appear here. Calls follow the shape of the dose curve; as a rule, active = well fitted activation curve with a large enough effect; inconclusive = small, poorly fitted or top-dose-only effect; inactive = no such curve, though single readings can be large or run the other way. The list shows a part of the results.", "data": [{"assay": "qHTS of TDP-43 Inhibitors: NCGC Sytravon Library Screen; also: 0% is about no effect; nearly all actives have a fitted effect of over 55% in size", "details": "yeast TDP-43 toxicity rescue, BacTiter-Glo growth, 24 h; series mostly up to 46.1 µM; growth rescue (activation): at the top concentration", "in_short": "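TDP-43-expressing yeast, pregrown in raffinose, seeded at OD600 0.02 in galactose medium with compound for 24 hr at 30 deg C. Growth read by BacTiter-Glo luminescence, so rescue of toxicity appears as activation.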", "values": [{"smiles": "COc1cccc(C(NC(C)=O)c2nc(-c3cc4ccccc4o3)cs2)c1", "note": "(stereo not drawn)", "growth rescue (activation)": "inactive: 18.8%"}, {"smiles": "COc1cc2c(cc1OC)CN(C(=O)COc1ccccc1C#N)CC2", "growth rescue (activation)": "inactive: 18.4%"}, {"smiles": "O=C(NCc1ccccn1)c1nc(-c2ccc(C(F)(F)F)cc2)no1", "growth rescue (activation)": "inactive: -6.53%"}, {"smiles": "O=C(c1cc(S(=O)(=O)N2CCCC2)c(Cl)cc1Cl)N1CCCC1", "growth rescue (activation)": "inactive: 4.97%"}, {"smiles": "COC(=O)c1ccc(CSc2nnc(C)n2N)o1", "growth rescue (activation)": "inactive: 3.77%"}, {"smiles": "Cc1ccc(O)c(NC(=O)c2noc3c2CCc2ccccc2-3)c1", "growth rescue (activation)": "inactive: -5.32%"}, {"smiles": "CCSc1n[nH]c(=S)s1", "growth rescue (activation)": "inactive: 11.3%"}, {"smiles": "Cc1nc(SCC(=O)N2CCOCC2)c2c(C)c(C)sc2n1", "growth rescue (activation)": "inactive: 4.6%"}, {"smiles": "CC1(C(=O)NS(=O)(=O)C2CC2)CCCN(C(=O)c2ccco2)C1", "note": "(stereo not drawn)", "growth rescue (activation)": "inactive: -2.61%"}, {"smiles": "O=C(NCC1(N2CCCCC2)CCCCC1)c1ccc(S(=O)(=O)N2CCCC2)cc1", "growth rescue (activation)": "inactive: 7.04%"}, {"smiles": "CCOc1ncccc1C(=O)OCC(=O)N1CCc2ccccc21", "growth rescue (activation)": "inactive: -7.95%"}, {"smiles": "CCc1c(C)sc(NC(=O)/C=C/c2ccc3c(c2)OCO3)c1C(=O)OC", "growth rescue (activation)": "inactive: 29.7%"}, {"smiles": "COc1ccc(NS(=O)(=O)c2cccc(C(=O)NN=Cc3ccc(O)c(OC)c3)c2)cc1", "growth rescue (activation)": "inactive: 10.1%"}, {"smiles": "CS(=O)(=O)c1cnc(-c2ccccc2)nc1-c1ccc(Cl)c(Cl)c1", "growth rescue (activation)": "inactive: 3.73%"}, {"smiles": "CCOc1ccccc1N(C(=O)c1ccco1)C(C(=O)NC1CCCC1)c1cccs1", "note": "(stereo not drawn)", "growth rescue (activation)": "inactive: 6.03%"}, {"smiles": "COc1cc(/C=C(/C#N)c2ccccc2F)ccc1OCc1ccccc1", "growth rescue (activation)": "inactive: 9.68%"}, {"smiles": "C=CCn1c(SCC(=O)N2CCCCCC2)nc2ccccc2c1=O", "growth rescue (activation)": "inactive: 1.74%"}, {"smiles": "COc1cccc(-c2cc(=O)[nH][nH]2)c1", "growth rescue (activation)": "inactive: 3.31%"}, {"smiles": "CC(O)c1n(C)c(Cl)c[n+]1C", "note": "(stereo not drawn)", "growth rescue (activation)": "inactive: 17.2%"}, {"smiles": "Cc1csc(N2CCCC2=O)n1", "growth rescue (activation)": "inactive: -11.8%"}, {"smiles": "CCN(C(=O)COC(=O)c1ccc(Cl)c(N)c1)C1CCS(=O)(=O)C1", "note": "(stereo not drawn)", "growth rescue (activation)": "inactive: 0.465%"}, {"smiles": "O=c1[nH]c(C2CCN(S(=O)(=O)/C=C/c3ccccc3)CC2)nc2c1nnn2Cc1ccc(F)cc1", "growth rescue (activation)": "inactive: 20%"}, {"smiles": "CCOC(=O)COc1ccc(C2CC(C)=NN2c2ccccc2)cc1", "note": "(stereo not drawn)", "growth rescue (activation)": "inactive: 12.8%"}, {"smiles": "COc1cccc(C(O)c2ncc(-c3cccc(C(F)(F)F)c3)[nH]2)c1", "note": "(stereo not drawn)", "growth rescue (activation)": "inactive: 21.5%"}, {"smiles": "COc1ccc(N2CCN(S(=O)(=O)c3ccc4oc(=O)ccc4c3)CC2)cc1", "growth rescue (activation)": "inactive: 7.52%"}, {"smiles": "CCCS(=O)(=O)N1CCCC(C(=O)NC(C)c2ccc3c(c2)OCCO3)C1", "note": "(stereo not drawn)", "growth rescue (activation)": "inactive: 6.04%"}, {"smiles": "O=C(NNS(=O)(=O)c1cccc(Cl)c1Cl)c1cccc(S(=O)(=O)N2CCOCC2)c1", "growth rescue (activation)": "inactive: 8.52%"}, {"smiles": "CCOC(=O)c1ccccc1NC(=O)Cc1ccc(OC)c(S(=O)(=O)N2CCOCC2)c1", "growth rescue (activation)": "inactive: -14.3%"}, {"smiles": "Cc1cccc(C)c1NC(=O)CNC(=O)c1ccccc1", "growth rescue (activation)": "inactive: 14.2%"}, {"smiles": "CC1=C(C(=O)Nc2cc(C)cc(C)c2)C2(CCCCC2)OC1=O", "growth rescue (activation)": "inactive: 5.11%"}, {"smiles": "Cc1ccc(C(=O)N2CCN(S(=O)(=O)N3CCCCCC3)CC2)cc1", "growth rescue (activation)": "inactive: -14.9%"}, {"smiles": "COC(=O)c1cc(NC(=S)NCc2ccc(Cl)cc2)cc(C(=O)OC)c1", "growth rescue (activation)": "inactive: 24.3%"}, {"smiles": "Cc1c(CCC(=O)N[C@@H](CC(C)C)C(=O)O)c(=O)oc2c(C)c3oc4c(c3cc12)CCCC4", "growth rescue (activation)": "inactive: -5.6%"}, {"smiles": "Cc1ccc(S(=O)(=O)NCC(C)n2cncn2)cc1C", "note": "(stereo not drawn)", "growth rescue (activation)": "inactive: 5.49%"}, {"smiles": "COc1cc(/C=N/O)cc(Cl)c1OC", "growth rescue (activation)": "inactive: 34.7%"}, {"smiles": "COc1cccc(CNc2nc3cc(-c4cccc(C(F)(F)F)c4)sc3c(=O)n2C)c1", "growth rescue (activation)": "inactive: 24.2%"}, {"smiles": "Cc1ccsc1CN1CCC(C(=O)NCc2ccccc2Cl)CC1", "growth rescue (activation)": "inactive: 5.38%"}, {"smiles": "CC1(C(=O)NCc2ccc3c(c2)OCO3)CCN1CCc1ccccc1", "note": "(stereo not drawn)", "growth rescue (activation)": "inactive: -5.59%"}, {"smiles": "CC(=O)NCc1ccc(S(=O)(=O)N2CCCN(C)CC2)cc1", "growth rescue (activation)": "inactive: -2.04%"}, {"smiles": "COc1ccc(NC(=S)N2CCCC(c3nc4ccc(C)cc4[nH]3)C2)c(OC)c1", "note": "(stereo not drawn)", "growth rescue (activation)": "inactive: 6.29%"}, {"smiles": "O=C(N=Nc1c(O)[nH]c2ccccc12)c1cccs1", "growth rescue (activation)": "inactive: -14.5%"}, {"smiles": "CN(C)C(=O)N1CCN(C(=O)N2CCOCC2)CC1", "growth rescue (activation)": "inactive: 24%"}, {"smiles": "COc1ccc(C(=O)COC(=O)c2ccc3ccccc3n2)cc1", "growth rescue (activation)": "inactive: 4.26%"}, {"smiles": "CC[C@@H](C)[C@H](NC(=O)Cc1c(C)c2c(cc(C)c3c(C)coc32)oc1=O)C(=O)O", "growth rescue (activation)": "inactive: -11.3%"}, {"smiles": "Cc1ccc(S(=O)(=O)/N=C2\\C=C(NS(=O)(=O)c3ccccc3)C(=O)c3ccccc32)c(C)c1", "growth rescue (activation)": "inactive: -0.127%"}, {"smiles": "COCCCn1cnc2c(c1=O)c1nc3ccccc3nc1n2CCc1ccccc1", "growth rescue (activation)": "inactive: 28.1%"}, {"smiles": "Cc1ccccc1OCC(=O)Nc1ccc2c(c1)n(C)c(=O)n2C", "growth rescue (activation)": "inactive: 28.7%"}, {"smiles": "CC(=O)NC(=S)Nc1ccccc1N1CCN(C(=O)c2ccccc2)CC1", "growth rescue (activation)": "inactive: 16.8%"}, {"smiles": "CN1CCN(C(=O)c2cc(COc3c(F)cccc3F)on2)CC1c1ccccc1", "note": "(stereo not drawn)", "growth rescue (activation)": "inactive: -81.7%"}, {"smiles": "Cc1cc(SCC(=O)N/N=C/c2ccc(C(=O)O)cc2)nc2ccccc12", "growth rescue (activation)": "inactive: 17.1%"}, {"smiles": "N#Cc1ccc(C(=O)N2CCCCC2c2cc(C(=O)NCc3ccccc3)no2)cc1", "note": "(stereo not drawn)", "growth rescue (activation)": "inactive: 6.68%"}, {"smiles": "COc1cc(C(=O)OC(C)C(=O)Nc2ccc3c(c2)OCCO3)cc(OC)c1OC", "note": "(stereo not drawn)", "growth rescue (activation)": "inactive: 37%"}, {"smiles": "Cc1cccc(C(=O)NC(=S)NCc2cccnc2)c1", "growth rescue (activation)": "inactive: 7.24%"}, {"smiles": "CC1CCN(Cc2c(C(=O)N/N=C/c3cc(Br)ccc3O)nnn2-c2nonc2N)CC1", "growth rescue (activation)": "inactive: 6.44%"}, {"smiles": "N#Cc1ccc(N/N=C/c2cn(-c3ccccc3)nc2-c2ccccc2)c([N+](=O)[O-])c1", "growth rescue (activation)": "inactive: 9.43%"}, {"smiles": "Cc1ccccc1NC(=O)CCS(=O)(=O)c1cccc2nonc12", "growth rescue (activation)": "inactive: -1.77%"}, {"smiles": "CCC(Oc1cccc(C)c1)C(=O)Nc1ccccc1C(=O)N1CCOCC1", "note": "(stereo not drawn)", "growth rescue (activation)": "inactive: 12.6%"}, {"smiles": "NS(=O)(=O)c1cccc(NC(=O)CSc2ncc(C(F)(F)F)cc2Cl)c1", "growth rescue (activation)": "inactive: -11.5%"}, {"smiles": "COc1ccc(-c2coc3c(C(=O)NCCN(C)C)cccc23)c(C)c1", "growth rescue (activation)": "inactive: 14.7%"}, {"smiles": "CC(=O)c1c(-c2ccc(Cl)cc2)c2ccccc2[nH]c1=O", "growth rescue (activation)": "inactive: 6.06%"}, {"smiles": "CCc1ccc(Nc2nc(-c3cc4cccc(OC)c4oc3=O)c(CC)s2)cc1", "growth rescue (activation)": "inactive: -15.6%"}, {"smiles": "O=C(c1ccco1)N1CCCN(Cc2nc(Cc3ccccc3)no2)CC1", "growth rescue (activation)": "inactive: 0.261%"}, {"smiles": "O=C(COc1ncnc2ccccc12)Nc1cc([N+](=O)[O-])ccc1F", "growth rescue (activation)": "inactive: 33.9%"}, {"smiles": "CCOC(=O)C1CCN(C(=O)C2CCCN(S(=O)(=O)c3ccc(OCC)c(Cl)c3)C2)CC1", "note": "(stereo not drawn)", "growth rescue (activation)": "inactive: -2.89%"}, {"smiles": "NC(=O)[C@@H]1CCCN1Cc1nc(-c2ccccc2)no1", "growth rescue (activation)": "inactive: 17.4%"}, {"smiles": "Cc1ccc(CNC(=O)C2CCCN(S(=O)(=O)c3cccc4nonc34)C2)cc1", "note": "(stereo not drawn)", "growth rescue (activation)": "inactive: 4.17%"}, {"smiles": "Cc1cccc(N(C)c2cc(-c3ccc(F)cc3)nc3ccnn23)c1", "growth rescue (activation)": "inactive: 10.6%"}, {"smiles": "COc1cccc(NC(=O)CSc2nnnn2C2CCCCC2)c1", "growth rescue (activation)": "inactive: -8.54%"}]}]}
